In the supplement of paper PMC10126150:
Sequences with one replicate were seen in a single cluster, so their values are uncertain.

Test system: ATP
Assay: switch fluorescence ratio, 500 uM ATP over buffer (Cy3 cluster intensity, sum of 5 cycles each) (fold (ratio)); higher = stronger signal-on switching upon ATP binding; sequences stand for … in TCGTCGGCAGCGTCAGATGTGTATAAGAGACAGTTTTTTTTTTTTTTTTTTTTTTTTT…TC
Settings: aptamer strand: ATP DNA aptamer (quencher-CACCTGGGGGAGTATTGCGGAGGAAGG + anchor), 100 nM annealed; ATP concentration: 500 uM; one replicate
Method in brief: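 Five buffer/ATP imaging cycles were run on Cy3-labelled switching-strand clusters on a modified Illumina MiSeq flow-cell, with NaOH stripping and re-annealing between cycles. In each cycle, clusters annealed to 100 nM quencher-labelled ATP aptamer were imaged in selection buffer, then after 15 min with 500 uM ATP at 22 °C. Per cluster, the fluorescence ratio is summed target-cycle over summed buffer-cycle Cy3 intensity, averaged per switch-domain sequence. Only clusters within 100-1000 RFU were kept.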
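Note: ATP exposure 15 min at 22 °C before imaging.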

Sequence	switch fluorescence ratio
ATACATAA	1.05
TTTCATAATG	0.981
CAATAGGGAA	0.954
AGCCTTCTCC	2.15
CGCTATGTTC	1.34
GGTACAATTT	1.02
TCCGTTCTTC	0.983
GGTTTATGCG	1.01
GAAGATGGAA	1.01
AGTTTAAAAT	0.976
ACGATAGGCA	1.06
ATAAAGATCG	0.979
TCCGGTTCTC	1.13
GTTCATGCCA	1.02
ATTACTGCTT	0.963
ATACGGTTGT	1.02
TGATATGTGC	1.01
GACTCCCGCT	2.14
GTTTTGGG	0.947
TCATTAGTTT	1.02
TTTGGGGCCG	1.1
TGGATGCGCC	0.975
CGAGGTCATG	0.998

Sequence	switch fluorescence ratio
GTCCCAATTT	1.06
CCGAGTTAT	1.31
AAGGCGTTAT	0.989
TTGATTCTTC	1.01
CCATCAGCCT	1.1
ACAAACCGAA	1.17
TCGGACCAGG	1.1
CATAGTTCCT	1.01
CATTGCGA	1.1
TCGCTTCGAA	1.01
ATGAAAACCC	0.976
AGTTCTTAGC	1.02
ACTTGTACAA	1.1
GGTGAAACGA	1.02
CAGGTCAACC	0.971
CACACTACCC	1.34
GCCGATGAAT	0.985
AACATAACCT	2.34
TGGTTCCCGG	0.973
CGCGTCTGAG	1.01
TATATGCTTC	1.01
CAGTTAAGGA	0.967
AATCCATGTT	1.01

Sequence	switch fluorescence ratio
ACAGAAAACA	0.991
AAATTGCGTG	1.01
GTGCTAAAGG	0.97
CGTTTGAAGA	0.97
TAATACTTTA	0.994
CTACATGCAC	1.26
TGGAGTTTCT	0.989
TTTAAATTTC	1.03
GCCAGAGGT	1.01
CGTTTAAATA	1.01
GTTTTAAATA	1.02
CTGCCTGCGT	1.11
AGTTGTGCCC	0.939
TAGAGTATTA	0.965
TCCGCTTTTG	1.12
TTGGGGGTC	1.01
CCTTGTACTA	1.03
CGCGACTTAT	1.1
CGCTAGAAGG	1.01
GAGGGACGTT	1.01
CCGTCTCTAT	1.05
TTCGGACATA	1.01
GGCGACGCGT	1.09

Sequence	switch fluorescence ratio
TAAATGCAAT	1.1
ATATGAAATT	0.967
ACTTTAAAAA	1.31
GGCTCAAGGG	0.985
AGAGGAGTTT	0.994
ATAGTCTGTA	0.982
TGGGAGGGC	0.99
TGAGGTGCCT	1.02
GGGTGTTCC	1
ACGTAAGGCT	1.12
TTGTTAGTA	1.02
GGTCTGGATG	0.97
CGCGGAGGTA	1.04
CGGATAGTCG	1.16
TGAGGTGGTA	0.97
GTAGAATTA	0.985
GAAAGTGTTT	1.05
TTAGCAACCT	1.69
GCAGTACCGT	1.02
ACCACTCGGG	1
TTATAGTGTG	0.978
GGGCGCTACC	0.988
TAAGTATAAA	1.03

Sequence	switch fluorescence ratio
GCCACACGCC	1.13
AGTGCGTGAG	0.947
GAGAGCAA	1.75
TCGGCGTCAA	1.51
GGGTTCATAG	0.957
CCCTTTCACG	1.07
CCTCAGGCAG	2.98
CTGAGTTATG	0.958
CAGATCTTGT	0.947
ATTGTCCCGG	0.968
CGATGGAGTT	0.965
GAATTCAGGC	0.954
GGTGCGGGAA	1.01
CATATAAGAC	1.08
CCATACGGGA	1.01
TTTGGATTGA	1.09
AGGATTTCAG	0.999
CTCCGAAATT	5.25
TACCGTCCTA	1.05
AACTCCACCG	1.57
GGGGCTCGCA	1.02
CCCTGGCTGT	1.17
TTCGTCTAGT	0.997

Sequence	switch fluorescence ratio
CGGGCCCACT	1.01
GGGAAACA	1
CGTCAGGATA	0.997
TACGTCAATT	1.28
GTTGCGCACG	1
GATAGTGGCG	0.975
GACGCTGATG	1.01
GCAGAGCTAT	1
CGTAGTCCAG	1
ATAATCTTCT	1.12
TTCGAGATGA	0.987
AGTCCATGCT	1.04
AATAAACGAT	1.02
CTCATAGGTC	1
ACGGTTGGAT	1.04
CAGGTGTCTT	1.43
ACTCTGCG	1.55
GGGTGTGTAA	1.01
AATAACGGGG	1.02
ACTTCTGGCA	1.1
AAGTTATTG	0.987
GGACACCAGT	1.02
CACAGGAGCC	1.04

Sequence	switch fluorescence ratio
GCAGGTTGGG	1.04
TCCAAGTACA	1.33
AGATCCGGGC	1.02
TTTATTGGGG	0.951
GCCGGGTCTG	1.01
GCATACTTCC	3.02
CCGCCGAATA	4.92
TAAGGAGTCA	1.06
TAGAGAAGCG	1
TCGCTGCAGC	1.04
CTCCTTAGCG	0.99
CCACGAGGTC	1.07
GATAATACCT	1.37
GGGGCTGTTA	0.941
CACAAGCCTG	0.976
TTGGCCCGTG	1.05
CGGCGTGGTG	0.979
GTAAAGAGCG	1.02
CGAAATCTAG	0.999
